Where “and” joins values, the source holds several entries; their conditions need not be identical. Equal values may be shown once.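 Assay format: 96-well plates, 48-hour exposure. GI50 is the concentration that inhibits growth by half. TGI marks complete inhibition of growth.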
test system: NCI-H322M lung; experiment: NCI anticancer screen, dose series, 48 h

SMILES	TGI	GI50
C/C=C/C1OC(O)(C(C)C(O)[C@H](C)C2OC(=O)/C(OC)=C/C(C)=C/[C@@H](C)[C@@H](O)[C@@H](C)C(O)C(C)C/C(C)=C/C=C/C2OC)C[C@@H](OC2CC(O)C(OC(N)=O)C(C)O2)C1C (some centres not stated)	15.5 µM	–
O=C1CC(c2cccc(Br)c2)n2cccc21 (configuration not stated)	> 100 µM	–
O=C(Cc1ccccc1)Nn1c(-c2ccccc2)nc2ccccc2c1=O	> 100 µM	–
CN(Cc1cc(Cl)cc(Cl)c1)CC(C(=O)c1ccccc1)c1ccccc1 (configuration not stated)	> 60.9 µM	–
CN(CCNCc1cn(C)c2c1ccc1ccccc12)CCNCc1cn(C)c2c1ccc1ccccc12	2.73 µM	–
CCCCCCCCCCCCCCCC(=O)N(CCCCCCCCCCC(=O)O)CC(O)C(O)C(OC1OC(CO)C(O)C(O)C1O)C(O)CO (configuration not stated)	> 100 µM	–
Cn1c2ccc(Br)cc2c2c3c(c4c5ccccc5[nH]c4c21)C(=O)N(O)C3=O	2.23 µM	0.72 µM
COc1ccccc1CNCCCN1C(=O)c2ccc3c4c(ccc(c24)C1=O)C(=O)N(CCCCNCCCN)C3=O	5.41 µM	2.14 µM
Cc1cc(Cl)ccc1NC(=O)C(=O)C(C(=O)c1ccc2ccccc2c1)C1OC(=O)c2ccccc21 (configuration not stated)	34.6 µM	–
COc1ccc(C2SCC(=O)N2NC(=O)c2ccc(NC(C)=O)cc2)cc1 (configuration not stated)	> 100 µM	–
O=S1Nc2c(Cl)cc(Cl)c3c(Cl)cc(Cl)c(c23)N1	> 100 µM	–
O=C(N/N=C(/COc1ccc([N+](=O)[O-])cc1)N=Cc1ccncc1)c1ccncc1	> 100 µM	–
COc1nc(N)nc2c1ncn2C1OC(CO)C(O)C1O (configuration not stated)	> 5000 µM	3890 µM
O=CC12C3CCC1C2C(=O)C3 (configuration not stated)	> 100 µM	–
O=C1Nc2ccc(Cl)cc2/C1=C\c1c(Cl)nc2sccn12	> 100 µM	–
C=C(Nc1ccc([N+](=O)[O-])cc1[N+](=O)[O-])c1c/c(=N\NC(N)=S)c2ccccc2o1	> 100 µM	–
O=Cc1cccc2c1Oc1c(cccc1C(=O)O)S2	> 100 µM	–
O=C1/C(=C\c2ccccn2)c2ccccc2N1c1c(Cl)cccc1Cl	8.07 µM	2.72 µM
CC(C)(C)CC(C)(C)NCc1cc(C(C)(C)C)cc(CNC(C)(C)CC(C)(C)C)c1O	17 µM	4.5 µM
CCCCCCCCCCCCOCCCOP(=O)([O-])OCC[N+](C)(C)C	> 100 µM	–
CN(c1ccccc1Cl)S(=O)(=O)c1ccc([N+](=O)[O-])cc1	> 100 µM	–
COc1ccc(C(=O)c2cc3c(N)c(C(=O)Nc4ccc(C)cc4)sc3nc2C)cc1	40 µM	5.01 µM
c1c[nH]c(C23C4C5C6C4C2C6C53)n1 (configuration not stated)	> 100 µM	–
O=C(O)CCC(=O)c1ccc(Cl)cc1	> 100 µM	–
O=C(Nc1ccc(-n2ccc3c(NC(=O)c4ccccc4)ncnc32)cc1)Nc1cccc(Cl)c1Cl	> 50 µM	1.8 µM

SMILES	TGI	GI50
Cc1ccc(NC(=O)CSc2nc(=O)[nH]c3nc[nH]c23)cc1	> 100 µM	–
CC(=O)NC1=C[C@@H]([C@H]2COC(C)(C)O2)OC1=O	> 100 µM	–
CSc1n[n+]2c(s1)SCCC2	> 100 µM	–
Cc1cc(S(=O)(=O)Nc2nc(N)nc(N(C)C)n2)c(SCC(=O)O)cc1Cl	> 10 µM	–
SCCSCCCSCCS	> 100 µM	–
CCC(CNc1cc(OC)cc2cccnc12)NC1CCCCC1 (configuration not stated)	> 100 µM	21.7 µM
CN1C(=O)C(=O)c2cc3c(c4c2c1cc1ccccc14)OCO3	> 100 µM	–
O=C(/C=C/c1ccccc1)n1c(-c2ccc(Cl)cc2)nc2ccccc21	6.52 µM	1.96 µM
CCOC(=O)CC1(c2cccc3ccccc23)OC(=O)c2ccccc21 (configuration not stated)	> 100 µM	–
Nc1ccn(C2OC(COC(=O)C34CC5CC(CC(C5)C3)C4)C(O)C2O)c(=O)n1 (configuration not stated)	> 100 µM	–
CCOC(=O)c1sc2[n+](c1C)C(=O)/C(=C/c1ccc([N+](=O)[O-])cc1)S2	> 100 µM	–
CN(C)CCCn1nc(N)c2nc3cc(Cl)ccc3nc21	98.1 µM	–
O=C(NCc1cccc2ccccc12)N/N=C\c1ccc(Cl)cc1	> 100 µM	–
CN(C)C(=O)OC(Cn1cncn1)(Cn1cncn1)c1ccc(Cl)cc1Cl	> 100 µM	–
CCc1cc(CCC(=O)Nc2c(C)cccc2C)[nH]n1	> 100 µM	–
CC1(C)C2CC(=O)C1(C)C(OCc1ccccc1)C2 (configuration not stated)	> 100 µM	–
COC(C(=O)NCCCCNC(=O)C(OC)c1ccccc1)c1ccccc1 (configuration not stated)	> 100 µM	–
N#Cc1c(-c2ccccc2)[nH]c(=O)n(C2OC(CO)C(O)C(O)C2O)c1=O (configuration not stated)	> 100 µM	–
CCN(CC)CCCC(C)N=C(C1=C(C(=NC(C)CCCN(CC)CC)c2cccc(OC)c2)C(=O)NC1=O)c1cccc(OC)c1 (configuration not stated)	10.1 µM	2.24 µM
COC(C)(C)C1(O)CCC(C)CC1=O (configuration not stated)	> 100 µM	–
O=C1CCCCCCCCCCC1CN1CCCCC1 (configuration not stated)	> 100 µM	–
OCC(O)c1nc2ccc3[nH]ncc3c2c2c1CCCC2 (configuration not stated)	14.2 µM	1.33 µM
Cc1ccc(C)c(C2NC(=O)c3ccccc3N2)c1 (configuration not stated)	> 100 µM	–
O=[N+]([O-])C1Cc2ccccc2OC1c1ccccc1 (configuration not stated)	> 100 µM	–
CC(C)(C)C(=O)OCC1CCC(n2cnc3c(=O)[nH]c(N)nc32)O1 (configuration not stated)	> 100 µM	–

SMILES	TGI	GI50
CC(=O)N=C1N(/C=C2\C(=O)Oc3ccccc3C2=O)C(=O)/C(=C/c2ccc(NC(C)=O)cc2)N1C	> 100 µM	–
c1csc(C[N+]23CN4CN(CN(C4)C2)C3)c1	> 100 µM	–
COC(=O)c1cc(O)c2c(c1C(=O)OC)C[C@H]1[C@@H]3CC=C4C[C@@H](O)CC[C@]4(C)[C@H]3CC[C@]21C	24.4 µM	4.02 µM
O=S(=O)(/N=C(\NO)Nc1ccc(Cl)cc1)c1cccc2nsnc12	92.7 µM	–
FC(F)(F)c1cccc(-c2nc3ccccc3c3c2[C@@]2(N4CCCC4)CCCC[C@@H]32)c1	> 100 µM	–
CC(C)C1=CC23CCC4C(C)(C(=O)O)CCCC4(C)C2CC1C1C(=O)N(c2ccccc2)C(=O)C13 (configuration not stated)	92.4 µM	–
Cc1cn2c(/C=N/N=C(N)N)c(-c3cccs3)nc2s1	15.7 µM	3.97 µM
Nc1ccc(C(=O)c2cn(CCN3CCOCC3)c3ccccc23)c2ccccc12	> 100 µM	–
CC(=O)[CH-]C(=O)c1ccccc1.CC(=O)[CH-]C(=O)c1ccccc1.CCOCC[O-].CCOCC[O-].[Ti+4]	> 100 µM	35.7 µM
CC1=C(C(=O)c2ccccc2)C23C(=O)N(c4ccccc4)C(=O)C2=C(O)C=CC3(O)N1 (configuration not stated)	> 100 µM	–
O=c1[nH]nc(Cc2ccccc2)n1CCO	> 100 µM	–
C=CCO[C@]1(CC=C)C(=O)C(=O)OC1C1COC(C)(C)O1 (some centres not stated)	> 100 µM	–
COc1ccc(C2C3COc4ccccc4C3=NN2c2ccccc2)cc1 (configuration not stated)	> 100 µM	–
CN(/N=C/c1ccnc2ccccc12)c1ccc(Cl)cc1[N+](=O)[O-]	> 100 µM	–
CCOc1cccc2ccc[n+](CC)c12	> 100 µM	–
CC(=O)On1c(-c2ccccc2-c2nc3ccccc3n2OC(C)=O)nc2ccccc21	> 100 µM	–
O=[N+]([O-])c1ccc(C=NCC2CCCN3CCCCC23)cc1 (configuration not stated)	> 100 µM	–
N#CC1=C(N)NC(N2CCOCC2)=NC12Nc1ccccc1N2	> 100 µM	74.1 µM
CCN(CC)CCCNC(=O)c1c2c(n3ccccc13)C(=O)c1ncccc1C2=O	3.55 µM	0.522 µM
COC(=O)[C@H](Cc1c[nH]c2ccccc12)NC(=O)c1ccc(CNC(=O)/C=C/c2cccc(Oc3ccccc3)c2)cc1	> 100 µM	–
CC(=O)OC1CC2C(C)(C)C(=O)C=C[C@]2(C)C2CCC3(C)C(=CC(=O)C3c3ccoc3)[C@]12C (some centres not stated)	28.6 µM	–
CC(C)=CCC/C(C)=C/CC/C(C)=C/CC/C(=C/CC/C(C)=C\CC/C(C)=C/CC/C(C)=C/CC/C(C)=C/Cc1cc(O)ccc1O)CO	> 86.1 µM	–
CCOC(=O)C(C)(C)Oc1ccc(/C=C/C(=O)c2ccc(Cl)cc2)cc1	> 100 µM	–
N#CCN/C=C\C(=O)c1ccc(Cl)cc1	> 100 µM	24.1 µM
O=C1OC(O)C(Oc2c(Cl)cccc2Cl)=C1Cl (configuration not stated)	58 µM	–

SMILES	TGI	GI50
COc1ccc2c(c1)CC[C@H](O)/C2=C/c1cc(OC)c(OC)c(OC)c1	> 100 µM	0.565 µM
O=c1[nH]c2cc(Cl)ccc2nc1/C(=N\O)C(O)c1ccc([N+](=O)[O-])cc1 (configuration not stated)	> 100 µM	–
Cc1cc(C)c(NC(=S)NC(=O)c2ccccc2)cc1C	> 100 µM	–
CCOC(=O)CNc1nc(=O)c2c(=O)oc(Cl)cc2o1	88 µM	–
C=C[C@@]1(O)CCCC2=C(C(=O)OCC)CC[C@]21C	> 100 µM	–
CC(=O)OC[C@@H](OC(C)=O)[C@H](OC(C)=O)[C@@H]1OC(C)(C)O[C@@H]1C1SCCCS1	> 100 µM	–
COC(=O)C(Cc1nc2ccccc2[nH]c1=O)C(=O)C(=O)Nc1ccc([N+](=O)[O-])cc1[N+](=O)[O-] (configuration not stated)	> 100 µM	–
S=C(c1c[nH]c2ccccc12)N1CCN(Cc2ccccc2)CC1	52.7 µM	–
C=C1C(=O)O[C@@H]2C[C@]3(C)CC[C@]4(C)[C@H](CC[C@@H]5[C@@]6(C)CCC(=O)C(C)(C)[C@@H]6CC[C@]54C)[C@H]3[C@H]12	46 µM	–
Cc1ccc(S(=O)(=O)NNC(=O)c2cc(C)c(C)cc2N)cc1	> 100 µM	–
COc1cc2c(=O)cnoc2cc1O	> 100 µM	–
COc1cc(-c2nc(-c3nc4ccccc4[nH]3)cc3c2[nH]c2ccccc23)cc(OC)c1OC	> 100 µM	44.1 µM
Cn1c(=O)c2nc(-c3ccc(Cl)cc3)oc2n(C)c1=O	> 100 µM	–
CC(C)C(N)=O	> 5000 µM	–
CC1OC(OC2C(OC(=O)[C@]34CCC(C)(C)C[C@H]3C3=CC[C@@H]5[C@@]6(C)CC[C@H](OC7OC(C(=O)O)C(O)C(OC8OCC(O)C(O)C8O)C7O)C(C)(C)[C@@H]6CC[C@@]5(C)[C@]3(C)CC4)OCC(O)C2O)C(O)C(OC2OCC(O)C(O)C2O)C1OC1OCC(O)C(OC2OCC(O)C(O)C2O)C1O (some centres not stated)	16.1 µM and 26.2 µM	5.14 µM and 13.2 µM
CCOP(=O)(OCC)C(C#N)Cc1ccco1 (configuration not stated)	> 10 µM	–
Cc1cc(N(CCC#N)S(C)(=O)=O)ccc1C=Nc1ccc(C(=O)NN2C(=O)/C(=C/c3ccc(N(CCC#N)CCC#N)cc3C)N=C2c2cc([N+](=O)[O-])ccc2Cl)cc1	> 100 µM	–
COc1cccc(/C=C/C(=O)c2ccc(Cl)cc2Cl)c1	27.5 µM	12.4 µM
COC(=O)c1cnc(Cl)cn1	> 100 µM	–
CCOC(=O)CC1C(COC(=O)NC)OC(n2cnc3c(NC(=O)Nc4ccccc4)ncnc32)C1O[Si](C)(C)C(C)(C)C (configuration not stated)	> 100 µM	31.7 µM
COc1ccc2nc3cc([N+](=O)[O-])ccc3c(NCCCN(C)C)c2c1	10.3 µM	0.178 µM
CCOC(=O)CC(=O)Nc1cccc2[nH]cnc12	> 100 µM	–
O=C(O)Cc1ccc2[nH]c(O)c(C3=Nc4ccccc4C3=O)c2c1	> 100 µM	–
O=[N+]([O-])c1cc2c(cc1/C=N/n1c(CO)nc3ccccc31)OCO2	> 100 µM	–

Reference: PubChem BioAssay (NCI)
